43 compounds from article PMC4336329 (PLoS ONE, 2015) can be followed below.

Molecules are shown by their SMILES. In all, about 310,000 compounds went through this assay and about 14,000 (4.5%) showed an effect of 50% or more. The effect is printed as a negative number. The list shows a part of the results.
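Further: peak tail current of the secondary pulse compared with the same well before compound.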

For the assay, the target named is human ether-à-go-go-related gene (hERG) potassium channel (human, UniProt Q12809). In words: primary screen, population patch clamp on CHO cells stably expressing hERG.
Sequence of human ether-à-go-go-related gene (hERG) potassium channel (Q12809 whole entry, looked up): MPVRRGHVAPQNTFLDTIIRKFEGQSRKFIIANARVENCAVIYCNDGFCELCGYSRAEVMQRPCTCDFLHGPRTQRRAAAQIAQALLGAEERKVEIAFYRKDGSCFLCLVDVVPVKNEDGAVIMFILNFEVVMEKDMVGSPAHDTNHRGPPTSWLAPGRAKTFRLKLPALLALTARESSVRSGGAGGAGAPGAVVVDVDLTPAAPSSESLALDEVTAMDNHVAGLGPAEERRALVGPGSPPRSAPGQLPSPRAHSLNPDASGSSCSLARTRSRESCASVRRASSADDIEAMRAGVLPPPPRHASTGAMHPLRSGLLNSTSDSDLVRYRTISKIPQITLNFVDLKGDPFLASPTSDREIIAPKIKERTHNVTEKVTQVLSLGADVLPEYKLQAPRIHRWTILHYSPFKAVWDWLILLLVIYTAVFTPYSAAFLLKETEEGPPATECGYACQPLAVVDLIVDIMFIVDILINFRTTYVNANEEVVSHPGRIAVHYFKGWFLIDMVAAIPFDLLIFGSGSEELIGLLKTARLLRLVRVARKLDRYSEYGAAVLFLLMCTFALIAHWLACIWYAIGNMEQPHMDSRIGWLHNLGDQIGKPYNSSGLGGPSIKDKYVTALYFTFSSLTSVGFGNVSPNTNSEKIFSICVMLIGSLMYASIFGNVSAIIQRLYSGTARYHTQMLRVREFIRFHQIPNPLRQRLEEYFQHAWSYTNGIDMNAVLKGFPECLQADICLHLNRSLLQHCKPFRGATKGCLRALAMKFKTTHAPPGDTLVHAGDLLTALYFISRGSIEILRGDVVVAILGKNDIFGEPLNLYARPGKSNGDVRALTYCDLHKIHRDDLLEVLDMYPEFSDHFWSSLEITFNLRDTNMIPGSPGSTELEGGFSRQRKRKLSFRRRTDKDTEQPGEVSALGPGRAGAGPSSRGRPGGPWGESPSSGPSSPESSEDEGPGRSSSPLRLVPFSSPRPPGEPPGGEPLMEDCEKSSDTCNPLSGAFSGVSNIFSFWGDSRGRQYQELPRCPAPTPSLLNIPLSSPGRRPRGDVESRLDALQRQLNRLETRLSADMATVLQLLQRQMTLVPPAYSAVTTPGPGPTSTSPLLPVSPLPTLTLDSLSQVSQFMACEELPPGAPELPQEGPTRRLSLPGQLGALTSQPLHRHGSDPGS
`C/C=C/C(=O)Nc1cccc(C2=NOC3(C2)C[C@@H](C(N)=O)N(C(=O)c2cc([N+](=O)[O-])cc([N+](=O)[O-])c2C)C3)c1` (stereo partly shown): the “hERG current change (%, negative = inhibition) at 10uM” value is reported as 11.3%.
The same measure for `O=C(Nc1ccccc1Br)c1ccc2nccnc2c1`: 7.27%; for `COC(=O)c1ccc(S(=O)(=O)N2CCC(c3nc4ccccc4o3)CC2)cc1`: 1.99%; for `COC(=O)Nc1sc2c(c1C(=O)NCc1ccco1)CCC2`: -9.73%.
On to `COc1ccc(N(C(=O)c2cccc(OC)c2OC)C2C=CS(=O)(=O)C2)cc1` (stereo not shown), for which the “hERG current change (%, negative = inhibition) at 10uM” value is on record as -0.645%.
Regarding `CCN(CC)CCCNC(=O)C1CCC(CNS(=O)(=O)c2c(C)cc(C)cc2C)CC1` (stereo not shown), the “hERG current change (%, negative = inhibition) at 10uM” value is reported as -13.5%.
Turning to `O=C(c1ccccc1F)c1cn(Cc2ccc(F)cc2)c2ccccc12`, the “hERG current change (%, negative = inhibition) at 10uM” value is 1.38%.
The same measure for `COc1ccc(CCNC(=O)CCNS(=O)(=O)c2cccc3nonc23)cc1OC`: -0.148%.
Take `Cn1c(=O)[nH]c(=O)c2c1nc(SCC(O)CO)n2CCCc1ccccc1` (stereo not shown): the “hERG current change (%, negative = inhibition) at 10uM” value is recorded as 15.1%.
The same measure for `O=C(O)CCNc1nc(C(F)(F)F)nc2ccccc12`: 18.2%; for `CCOc1ccc(CC(=O)Nc2c(C(=O)Nc3ccccc3)oc3ccccc23)cc1OCC`: -7.78%.
Take `COc1ccc(-c2c(C#Cc3ccsc3)c3cc(Br)ccc3n2C)cc1`: the “hERG current change (%, negative = inhibition) at 10uM” value was 0.881%.
Next, `S=c1[nH]nc(-c2ccc(Br)o2)n1Cc1ccccc1`: 5.02%; `CCC(=O)N1CCc2cc(S(=O)(=O)NC(Cc3ccccc3)C(=O)O)ccc21` (stereo not shown): 19.6%; `COC(=O)c1sc(NC(=S)NNC(=O)c2c(Br)c(C)nn2C)c(C(=O)OC)c1C`: 24.8%.
The same measure for `Cc1cccc(-c2n[nH]c(=S)n2Cc2ccccc2)c1`: -2.87%.
The same measure for `COc1ccc(CCNC(=O)c2c(C)cc(=O)oc2C)cc1OC`: 2.89%; for `CN(C(=O)COC(=O)c1ccccc1OCc1ccc(F)cc1)C1CCS(=O)(=O)C1` (stereo not shown): -13.3%.
As to `Cc1cc(=O)[nH]c(SCc2cccc(F)c2)n1`, the “hERG current change (%, negative = inhibition) at 10uM” value is recorded as 20.6%.
For `Brc1ccccc1-n1nnc(-c2cnc3ccccc3c2)n1`, the “hERG current change (%, negative = inhibition) at 10uM” value was 14.9%.
On to `CCC1(c2ccccc2)NC(=O)N(CC(=O)N(C)CC(=O)Nc2cccc(OC)c2)C1=O` (stereo not shown), for which the “hERG current change (%, negative = inhibition) at 10uM” value came out at 13.2%.
Next, `Cc1nc2ccc(S(=O)(=O)NCC(=O)NCCN3CCCCCC3)cc2s1`: 20%; `COc1ccc(NC(=O)CN(C)S(=O)(=O)c2ccc(Cl)cc2)c([N+](=O)[O-])c1`: 3.1%; `COc1ccc(CCNC(=S)NC(=O)c2cccc(Cl)c2)cc1OC`: 1.73%.
Next, `CCOC(=O)c1ccc(N2C(=O)c3n[nH]c(C)c3C2c2ccc(OC)cc2OC)cc1` (stereo not shown): -7.21%; `Cc1c(Br)c(=O)oc2c(Br)c(O)ccc12`: 19.9%.
Consider `Cn1c2ccccc2c2cc(/C=N/NC(=O)c3ccc(O)cc3O)ccc21`, for which the “hERG current change (%, negative = inhibition) at 10uM” value amounted to 21.3%.
The same measure for `C[N+]1(CCC(=O)c2ccccc2)CCCCC1.[I-]`: 10.8%; for `CCN(CC)C(=O)CSC1=C(C#N)C(c2ccco2)C(C(=O)OCCOC)=C(C)N1` (stereo not shown): 10.5%; for `COc1ccc(CN2CCCN(S(=O)(=O)c3ccc(Br)cc3)CC2)cc1`: -74.4%.
The same measure for `Cn1c(=O)oc2cc(S(=O)(=O)NCCC(=O)NCCc3ccc(Cl)cc3)ccc21`: -16.7%.
The same measure for `CCN(CC(=O)NC)S(=O)(=O)c1ccc(Br)cc1`: 15.3%; for `CCCC(C)C(=O)Nc1ccc(NC(C)=O)cc1` (stereo not shown): 11.5%; for `COc1ccc2nc(NC(=O)C3CCCN(S(=O)(=O)c4cccs4)C3)sc2c1` (stereo not shown): 13%.
For `O=C(NC1CCCC1)c1cc2nc(-c3ccccc3)cc(-c3ccccc3)n2n1`, the “hERG current change (%, negative = inhibition) at 10uM” value is -23.3%.
With `CN(C)CCOc1ccccc1C(C)(C)C.O=C(O)C(=O)O`, the “hERG current change (%, negative = inhibition) at 10uM” value is reported as 5.47%.
`Cc1nn(C(C)C(=O)N2CCOCC2)c(C)c1[N+](=O)[O-]` (stereo not shown): the “hERG current change (%, negative = inhibition) at 10uM” value stood at 4.08%.
Consider `CN1CC=C2C(C#N)=C(N)C(C#N)(C#N)C(c3ccncc3)C2C1` (stereo not shown), for which the “hERG current change (%, negative = inhibition) at 10uM” value is 14.4%.
Next, `CNC(=O)c1sccc1-n1cccc1`: 1.52%.
In the case of `CCOc1ccc(CCNC(=O)COC(=O)c2ccccc2O)cc1OCC`, the “hERG current change (%, negative = inhibition) at 10uM” value is -17.5%.
Next, `O=C(c1ccc(OC2CCN(C/C=C/c3ccc(F)cc3)CC2)cc1)N1CCCC1`: -75.5%.
With `CN(C(=O)CCc1nnc(CCCCc2ccccc2)o1)C1CCOCC1`, the “hERG current change (%, negative = inhibition) at 10uM” value is recorded as -7.51%.
Next, `COc1ccc(NC(=O)COc2ccc(C)c(C)c2)cc1S(=O)(=O)N1CCCCC1`: -13.5%.
